Residue numbers refer to the chain shown, from its start.
T1: BCMA expressed endogenously on U266 and H929 cells (UniProt Q02223 1-184, limits assumed)
T1 construct: whole, on cells; The cell line (U266 or H929) is named under assay in each row; also called B cell maturation antigen; CD269
T1 sequence (looked up): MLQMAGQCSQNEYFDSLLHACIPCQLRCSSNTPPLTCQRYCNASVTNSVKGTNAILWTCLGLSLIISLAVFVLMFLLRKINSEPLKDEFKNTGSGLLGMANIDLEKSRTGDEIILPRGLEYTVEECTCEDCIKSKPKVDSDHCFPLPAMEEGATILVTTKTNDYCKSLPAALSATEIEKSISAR

T2: human BCMA-His protein (human, UniProt Q02223 1-54)
T2 construct: Analyte in the SPR assay; also called human BCMA protein; BCMA antigen protein; not shown: His tag
T2 sequence (looked up): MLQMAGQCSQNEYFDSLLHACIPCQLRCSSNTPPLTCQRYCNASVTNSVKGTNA

T3: human BCMA-His protein (human, UniProt Q02223 1-54)
T3 construct: Bought protein; also called human BCMA protein; BCMA antigen protein; not shown: His tag
T3 sequence (looked up): T2 sequence (looked up)

B1: BCMA-04 VL1VH3a (Fc fusion)
scFv: EVQLVQSGAEVKKPGSSVKVSCKASGYSFTSYGISWVRQAPGQGLEWMGEIYPRDQITYYNEKFKGRVTLTADKSTSTAYMELSSLRSEDTAVYYCARHDYYYVNSVSAMDYWGQGTTVTVSSGGGGSGGGGSGGGGSDIVMTQSPDSLAVSLGERATINCKSSQSLLYSSNQKNYLAWYQQKPGQSPKLLIYWASTRYSGVPDRFSGSGSGTDFTLTISSLQAEDVAVYYCQQYYIYPWTFGGGTKVEIK[human IgG1 Fc with C220S (EU numbers) not spelt out]
B2: BCMA-03 VL2VH3a (Fc fusion)
scFv: EVPLVQSGSELKKPGASVKVSCKASGYTFTNYAMTWVRQAPGQGLEWMGWIDTYSGVPTYADSFKGRFVFSLETSASTAYLQISSLKAEDTAVYYCARVGVYGGYDTLDSWGQGTTVTVSSGGGGSGGGGSGGGGSDIQMTQSPSSLSASVGDRVTITCSASQGISNHLNWYQQKPDKTVKLLIYYTSSLHSGVPSRFSGSGSGTDFTLTISSLQPEDFATYYCQQYNNLPWTFGGGTKVEIK[human IgG1 Fc with C220S (EU numbers) not spelt out]
notes: humanized scFv-Fc
B3: BCMA-03 VL3VH3a (Fc fusion)
scFv: B2 scFv with K178G
notes: humanized scFv-Fc
B4: BCMA-03 VL1VH3a (Fc fusion)
scFv: B2 scFv with D177G, T179A
notes: humanized scFv-Fc
B5: BCMA-mAb03 (Fc fusion)
scFv: QIPLVQSGPELKKPGETVKISCKASGYTFTNYAMTWVKQAPGKGLKWMGWIDTYSGVPTYADDFKGRFAFSLETSATTAYLQINNLKNEDTATYFCARVGVYGGYDTLDSWGQGTSVTVSSGGGGSGGGGSGGGGSDIQMTQTTSSLSASLGDRVTISCSASQGISNHLNWYQQKPDGTVKLLIYYTSSLHSGVPSRFSGSGSGTDYSLTISNLEPEDFATYYCQQYNNLPWTFGGGTKLEIK[human IgG1 Fc with C220S (EU numbers) not spelt out]
notes: human-mouse chimeric scFv-Fc
B6: BCMA-mAb01 (scFv)
scFv: EVKLVESGGGLVQPGGSLKLSCAASGFTFSDFYMYWVRQTPEKRLEWVAYITNGGENTYFPDTVKGRFTISRDNAKNTLYLQMSRLKSEDTAMYYCARQNPFYYYDSNYDYAMDFWGQGTSVTVSSGGGGSGGGGSGGGGSDVVMTQTPLTLSVTIGQPASISCKSSQSLLYSNGKTYLSWLFQRPGQSPKRLIYLVSELDSGVPDRFTGSGSGTDFTLKISRVEAEDLGIYYCVQGTHFPHTFGGGTKLEIK[human IgG1 Fc with C220S (EU numbers) not spelt out]
notes: also called BCMA human-mouse chimeric antibody (scFv-Fc)
B7: BCMA-mAb04 (scFv)
scFv: QVQLQQSGAELARPGASVDLSCKASGYSFTSYGISWVKLRTGQGLEWIGEIYPRDDITYYNEKFKGKTTLTADKSSSTAYMELRSLTSEDSAVYFCARHDYYYVNSVSAMDYWGQGTSVTVSSGGGGSGGGGSGGGGSDIVMSQSPSSLAVSVGEKVTMSCKSSQSLLYSSNQKNYLAWYQQKPGQSPKLLIYWASTRYSGVPDRFTGSGSGTDFTLTVSSVRAEDLALYYCQQYYIYPWTFGGGTKLEIK[human IgG1 Fc with C220S (EU numbers) not spelt out]
notes: as for B6
B8: BCMA-mAb02 (scFv)
scFv: EVQLVESGGDLVQPGESLKLSCESNAYEFPSYDMSWVRKTPEKRLELVAAINSDGGITYYPDTMERRFIISRDNTKKTLYLQMSSLRSEDTALYYCARHGYGGGAYVLDYWGQGTSVTVSSGGGGSGGGGSGGGGSDIVMTQSQKFMSTTVGDRVRITCKASQNVGTAVAWYQQKPGQSPKVLIYSASSRYTGVPDRFTGSGSGTDFTLTINNMQSEDLADYFCQQYSNYHLTFGTGTKLELK[human IgG1 Fc with C220S (EU numbers) not spelt out]
notes: as for B6
B9: BCMA-mAb03 (scFv)
scFv: B5 scFv
notes: as for B6

biological target: T1, BCMA expressed endogenously on U266 and …; experiment: FACS on H929 cells

Binder | EC50 [nM] | Maximum mean fluorescence intensity
B1 | 33.2 | 7260
B2 | 14.1 | 9220
B3 | 12.2 | 10100
B4 | 12.1 | 10300
B5 | 7.56 | 7590

biological target: T1, BCMA expressed endogenously on U266 and …; experiment: FACS on U266 cells
Outline: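 Binding measured by flow cytometry as mean fluorescence intensity, with EC50 from curve fitting. Antibody incubated 1 h at 4° C with cells suspended at 2×10⁶/ml in PBS containing 2% FCS, followed by washes.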

Binder | EC50 [nM] | Maximum mean fluorescence intensity
B1 | 37.9 | 3400
B2 | 25.1 | 3530
B3 | 18.8 | 3450
B4 | 16.2 | 3500
B5 | 19 | 3630

biological target: T2, human BCMA-His protein; experiment: SPR, antibody captured on Protein A chip, BCMA-His as analyte
Procedure: (§1) A sample buffer and a running buffer were HBS-EP+ (10 mM HEPES, 150 mM NaCl, 3 mM EDTA and 0.05% surfactant P20) (GE Healthcare; BR-1006-69). The flow-through cell was set to 25° C. The sample block was set to 16° C. Both were pretreated with the running buffer. In each cycle, an antibody to be tested was first captured with a Protein A chip, and then a single concentration of BCMA antigen protein was injected. The binding and dissociation processes of the antibody and the antigen protein were recorded, and finally Glycine pH 1.5 (GE Helthcare; BR-1003-54) was used to complete chip regeneration. Binding was measured by injecting different concentrations of BCMA-His in solution for 240 s with a flow rate of 30 μL/min. The concentration started from 200 nM (see the detailed results for the actual concentration in the test) and was diluted at 1:1, making a total of 5 concentrations. The dissociation phase was monitored for up to 600 s and was triggered by switching from sample solution to running buffer. The surface was regenerated by washing with a 10 mM glycine solution (pH 1.5) for 30 s at a flow rate of 30 μL/min. Bulk refractive index difference was corrected by subtracting the response obtained from the goat anti-human Fc surface. Blank injection was also subtracted (=double reference). For calculation of apparent KD and other kinetic parameters, Langmuir 1:1 model was used. The binding rate (Kₐ), dissociation rate (Kdis) and binding affinity (KD) of the chimeric antibodies to human BCMA protein are shown in the table, wherein REGN5459-hlgG1 and HPN217-hHcAb antibodies were used as controls.
The specific method was the same as that in Example 6. The binding rate (Kₐ), dissociation rate (Kdis) and binding affinity (KD) of the humanized antibodies to human BCMA protein are shown Table 38, wherein REGN5459-hlgG1 antibody is used as a control.

Binder | Kd [nM] | koff [s⁻¹] | kon [M⁻¹ s⁻¹]
B1 | 0.115 | 0.000114 | 987000
B2 | 0.213 | 0.000262 | 1.23e+06
B3 | 0.236 | 0.000261 | 1.11e+06
B4 | 0.22 | 0.000287 | 1.3e+06
B5 | 0.114 | 0.000145 | 1.27e+06

biological target: T3, human BCMA-His protein; experiment: competition ELISA vs hAPRIL-biotin on coated human BCMA; antibody 0.14 nM
Procedure: (§2) The antigen protein was diluted with PBS to a final concentration of 1 μg/mL, and then added to a 96-well ELISA plate at 50 μl per well. The plate was sealed with a plastic film and incubated overnight at 4° C., the plate was washed twice with PBS the next day, and then a blocking solution [PBS+2% (w/v) BSA] was added for blocking at room temperature for 2 h. The blocking solution was discarded, the plate was washed 3 times with PBS, and 200 nM BCMA human-mouse chimeric antibody diluted gradiently or negative control antibody was added at 50 μl/well. hAPRIL-biotin (purchased from Acro, catalog number: APL-H82F5) was diluted to 0.5 μg/mL, with 50 μl per well. After incubation at 37° C. for 1.5 h, the plate was washed 3 times with PBS. HRP (horseradish peroxidase)-labeled secondary antibody (purchased from Sigma, catalog number: S2438-250 ug) was added, and incubated at 37° C. for 1 h, and the plate was washed 5 times with PBS. TMB substrate was added at 50 μl/well, and incubated at room temperature for 10 min, then a stop solution (1.0 M HCl) was added at 50 μl/well. The OD450 nm values were read by an ELISA microplate reader (Multimode Plate Reader, EnSight, purchased from Perkin Elmer).

Binder | OD450 [OD450]
B6 | 1.46
B7 | 1.13
B8 | 1.47
B9 | 1.27

biological target: T3, human BCMA-His protein; experiment: competition ELISA vs hAPRIL-biotin on coated human BCMA; antibody 0.41 nM
Procedure: as §2

Binder | OD450 [OD450]
B6 | 1.46
B7 | 1.11
B8 | 1.44
B9 | 1.24

biological target: T3, human BCMA-His protein; experiment: competition ELISA vs hAPRIL-biotin on coated human BCMA; antibody 1.23 nM
Procedure: as §2

Binder | OD450 [OD450]
B6 | 1.39
B7 | 1.07
B8 | 1.36
B9 | 1.15

biological target: T3, human BCMA-His protein; experiment: competition ELISA vs hAPRIL-biotin on coated human BCMA; antibody 3.70 nM
Procedure: as §2

Binder | OD450 [OD450]
B6 | 1.1
B7 | 0.85
B8 | 1.27
B9 | 1.03

biological target: T3, human BCMA-His protein; experiment: competition ELISA vs hAPRIL-biotin on coated human BCMA; antibody 11.11 nM
Procedure: as §2

Binder | OD450 [OD450]
B6 | 0.41
B7 | 0.31
B8 | 0.57
B9 | 0.44

biological target: T3, human BCMA-His protein; experiment: competition ELISA vs hAPRIL-biotin on coated human BCMA; antibody 33.33 nM
Procedure: as §2

Binder | OD450 [OD450]
B6 | 0.18
B7 | 0.09
B8 | 0.18
B9 | 0.09

biological target: T3, human BCMA-His protein; experiment: competition ELISA vs hAPRIL-biotin on coated human BCMA; antibody 100.00 nM
Procedure: as §2

Binder | OD450 [OD450]
B6 | 0.14
B7 | 0.07
B8 | 0.12
B9 | 0.08

biological target: T3, human BCMA-His protein; experiment: SPR, antibody captured on Protein A chip, BCMA-His in solution, 1:1 Langmuir
Procedure: as §1

Binder | Kd [nM] | koff [s⁻¹] | kon [M⁻¹ s⁻¹]
B6 | 0.487 | 0.00082 | 1.68e+06
B7 | 0.0935 | 0.000106 | 1.13e+06
B8 | 0.196 | 0.000253 | 1.29e+06
B9 | 0.126 | 0.000146 | 1.16e+06

Source: patent publication US20250297021A1 (SHANDONG SIMCERE BIOPHARMACEUTICAL CO NO 1, published 2025)
